Laboratory results published in PMC5892938.
The other results are listed elsewhere or left out. At the low end of the ranking, values are background and their order means little.

target: GST-SBP-SLBP (stem-loop binding protein) (UniProt Q14493); assay: targeted RNA Bind-n-Seq; settings: RBNS binding buffer: 25 mM Tris pH 7.5, 150 mM KCl, 3 mM MgCl2, 0.1% Tween, 0.5 mg/mL BSA, 1 mM DTT; 27 nM protein, 750 pM RNA pool; temperature not stated; high values mean tight binding;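 also: DESeq read counts versus GST-SBP nonspecific binding control pulldown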

Sequence	binding signal (log2 fold change)
GGUCACGUCUCAAUCAACUCUAUCCCCAGGGAAACCCCUGGCUAUCUCAACAGCUCGCAGUCAAG	-0.145
GGUCACGUCUCAAUCAACUCUUUUCCAGGAGUUUUCUCCUGCAAAUUCAACAGCUCGCAGUCAAG	-0.0619
GGUCACGUCUCAAUCAACUCUUCUUCAGGAGUUUUCUCCUGCUAUCUCAACAGCUCGCAGUCAAG	0.125
GGUCACGUCUCAAUCAACUCUAUCUCCAGGGAAAACCCUGGCAAAUUCAACAGCUCGCAGUCAAG	0.157
GGUCACGUCUCAAUCAACUCAUCUCCCAGGGAAACCCCUGGUAAUCUCAACAGCUCGCAGUCAAG	0.0397
GGUCACGUCUCAAUCAACUCUUUCUCCAGGGAAAACCCUGGCUAUCUCAACAGCUCGCAGUCAAG	0.0916
GGUCACGUCUCAAUCAACUCUUUCUCAGGAGUUUCCUCCUGCAAUUUCAACAGCUCGCAGUCAAG	0.248
GGUCACGUCUCAAUCAACUCAACUCCCAGGGAAAUCCCUGGCAAAUUCAACAGCUCGCAGUCAAG	0.0863
GGUCACGUCUCAAUCAACUCUUCCUCCAGGGAAAACCCUGGUAAUUUCAACAGCUCGCAGUCAAG	-0.0581
GGUCACGUCUCAAUCAACUCACAAGAGGGGGGGAAAACCCCUUUGCCCUCAACAUCAACAGCUCGCAGUCAAG	0.189
GGUCACGUCUCAAUCAACUCAGUCCCAGGAGUUUUCUCCUGCAUAUUCAACAGCUCGCAGUCAAG	0.0113
GGUCACGUCUCAAUCAACUCAUCUCCAGGAGUUUCCUCCUGCUUUCUCAACAGCUCGCAGUCAAG	-0.125
GGUCACGUCUCAAUCAACUCUACUUCAGGAGUUUACUCCUGUAAAUUCAACAGCUCGCAGUCAAG	0.139
GGUCACGUCUCAAUCAACUCAAUCCCAGGAGUUUGCUCCUGCUAUCUCAACAGCUCGCAGUCAAG	0.112
GGUCACGUCUCAAUCAACUCUUCUCCAGGAGUUUUCUCCUGUAAAUUCAACAGCUCGCAGUCAAG	0.14
GGUCACGUCUCAAUCAACUCCCUAGAGGGGGGGAAAACCCCUUUGCCCUCGAUAUCAACAGCUCGCAGUCAAG	0.0782
GGUCACGUCUCAAUCAACUCAUCUCCAGGAGUUUACUCCUGCAUUCUCAACAGCUCGCAGUCAAG	0.0217
GGUCACGUCUCAAUCAACUCUAUCCCCAGGGAAAGCCCUGGUUAUUUCAACAGCUCGCAGUCAAG	-0.0712
GGUCACGUCUCAAUCAACUCAAUCUCCAGGGAAAACCCUGGCAUAGUCAACAGCUCGCAGUCAAG	0.00683
GGUCACGUCUCAAUCAACUCAUCGCCAGGAGUUUGCUCCUGUAUUUUCAACAGCUCGCAGUCAAG	0.321
GGUCACGUCUCAAUCAACUCUUCGUCAGGAGUUUACUCCUGUUUAUUCAACAGCUCGCAGUCAAG	-0.0203
GGUCACGUCUCAAUCAACUCUUACGAGGGGGGGAAAACCCCUUUACCCUCACAUUCAACAGCUCGCAGUCAAG	0.283
GGUCACGUCUCAAUCAACUCAAUCUCCAGGGAAAGCCCUGGCUAUCUCAACAGCUCGCAGUCAAG	-0.014
GGUCACGUCUCAAUCAACUCAUCUUCCAGGGAAAUCCCUGGCAAUCUCAACAGCUCGCAGUCAAG	0.0372
GGUCACGUCUCAAUCAACUCAUCUUCCAGGGAAACCCCUGGUUAAUUCAACAGCUCGCAGUCAAG	0.0695

Sequence	binding signal (log2 fold change)
GGUCACGUCUCAAUCAACUCUACUUCCAGGGAAAUCCCUGGCUAUGUCAACAGCUCGCAGUCAAG	0.0885
GGUCACGUCUCAAUCAACUCAAUCCCAGGAGUUUACUCCUGCAAUUUCAACAGCUCGCAGUCAAG	0.0311
GGUCACGUCUCAAUCAACUCAACUUCCAGGGAAAACCCUGGCAAACUCAACAGCUCGCAGUCAAG	0.027
GGUCACGUCUCAAUCAACUCAUCCUCAGGAGUUUUCUCCUGCUUAGUCAACAGCUCGCAGUCAAG	0.00739
GGUCACGUCUCAAUCAACUCAUCCCCAGGAGUUUCCUCCUGCUAUCUCAACAGCUCGCAGUCAAG	0.137
GGUCACGUCUCAAUCAACUCUUCCUCCAGGGAAAACCCUGGCUUUCUCAACAGCUCGCAGUCAAG	0.11
GGUCACGUCUCAAUCAACUCUAUCCCAGGAGUUUACUCCUGUUUAUUCAACAGCUCGCAGUCAAG	0.184
GGUCACGUCUCAAUCAACUCAAUUCCCAGGGAAAACCCUGGUUUAUUCAACAGCUCGCAGUCAAG	-0.0328
GGUCACGUCUCAAUCAACUCAUUUUCCAGGGAAAACCCUGGCAGUCUCAACAGCUCGCAGUCAAG	0.0702
GGUCACGUCUCAAUCAACUCAUAAGAGGGGGGGAAAACCCCUUUGCCCUCAAUCUCAACAGCUCGCAGUCAAG	0.373
GGUCACGUCUCAAUCAACUCCCUAGAGGGGGGGAAAACCCCUUUACCCUCACUAUCAACAGCUCGCAGUCAAG	-0.114
GGUCACGUCUCAAUCAACUCAUCGUCAGGAGUUUCCUCCUGCAUAUUCAACAGCUCGCAGUCAAG	-0.0426
GGUCACGUCUCAAUCAACUCUAUCUCCAGGGAAAUCCCUGGCUUAUUCAACAGCUCGCAGUCAAG	0.00482
GGUCACGUCUCAAUCAACUCUUCUUCCAGGGAAAGCCCUGGUUAUUUCAACAGCUCGCAGUCAAG	-0.318
GGUCACGUCUCAAUCAACUCAUCUCCCAGGGAAAACCCUGGUAUACUCAACAGCUCGCAGUCAAG	-0.163
GGUCACGUCUCAAUCAACUCAGUCUCAGGAGUUUCCUCCUGCUUAUUCAACAGCUCGCAGUCAAG	-0.0181
GGUCACGUCUCAAUCAACUCUAUUUCCAGGGAAAGCCCUGGUUUACUCAACAGCUCGCAGUCAAG	0.101
GGUCACGUCUCAAUCAACUCAGUCUCAGGAGUUUCCUCCUGCUAUUUCAACAGCUCGCAGUCAAG	0.343
GGUCACGUCUCAAUCAACUCUUUCCCAGGAGUUUCCUCCUGUUUACUCAACAGCUCGCAGUCAAG	0.141
GGUCACGUCUCAAUCAACUCCCAAGAGGGGGGGAAAACCCCUUUACCCUCCAGAUCAACAGCUCGCAGUCAAG	-0.151
GGUCACGUCUCAAUCAACUCAACUUCAGGAGUUUACUCCUGUUAACUCAACAGCUCGCAGUCAAG	-0.165
GGUCACGUCUCAAUCAACUCACUCGAGGGGGGGAAAACCCCUUUACCCUCAUUUUCAACAGCUCGCAGUCAAG	-0.292
GGUCACGUCUCAAUCAACUCUAUCCCCAGGGAAACCCCUGGCUUAUUCAACAGCUCGCAGUCAAG	-0.116
GGUCACGUCUCAAUCAACUCCAAAGAGGGGGGGAAAACCCCUUUACCCUCACCAUCAACAGCUCGCAGUCAAG	0.244
GGUCACGUCUCAAUCAACUCUAUGGCAGGAGUUUACUCCUGGAAUUUCAACAGCUCGCAGUCAAG	-0.0867

Sequence	binding signal (log2 fold change)
GGUCACGUCUCAAUCAACUCAUUUGCAGGAGUUUUCUCCUGGUAUUUCAACAGCUCGCAGUCAAG	-0.109
GGUCACGUCUCAAUCAACUCAACGCCAGGAGUUUUCUCCUGCUUUUUCAACAGCUCGCAGUCAAG	-0.0759
GGUCACGUCUCAAUCAACUCUCAAGAGGGGGGGAAAACCCCUUUACCCUCGCCUUCAACAGCUCGCAGUCAAG	-0.157
GGUCACGUCUCAAUCAACUCUUCUCCCAGGGAAAGCCCUGGCUAUCUCAACAGCUCGCAGUCAAG	-0.00576
GGUCACGUCUCAAUCAACUCUCAAGAGGGGGGGAAAACCCCUUUGCCCUCACCGUCAACAGCUCGCAGUCAAG	0.21
GGUCACGUCUCAAUCAACUCACAAGAGGGGGGGAAAACCCCUUUACCCUCGUUUUCAACAGCUCGCAGUCAAG	-0.268
GGUCACGUCUCAAUCAACUCUUCCCCCAGGGAAAACCCUGGCAUUCUCAACAGCUCGCAGUCAAG	-0.00854
GGUCACGUCUCAAUCAACUCUUCAGAGGGGGGGAAAACCCCUUUACCCUCAACAUCAACAGCUCGCAGUCAAG	-0.365
GGUCACGUCUCAAUCAACUCAACUCCCAGGGAAACCCCUGGCAAUCUCAACAGCUCGCAGUCAAG	0.0539
GGUCACGUCUCAAUCAACUCCAAAGAGGGGGGGAAAACCCCUUUACCCUCAUUUUCAACAGCUCGCAGUCAAG	-0.219
GGUCACGUCUCAAUCAACUCUCAAGAGGGGGGGAAAACCCCUUUGCCCUCACUAUCAACAGCUCGCAGUCAAG	-0.0223
GGUCACGUCUCAAUCAACUCAGUCCCCAGGGAAAGCCCUGGUUAAUUCAACAGCUCGCAGUCAAG	-0.351
GGUCACGUCUCAAUCAACUCAACUCCAGGAGUUUUCUCCUGUUAACUCAACAGCUCGCAGUCAAG	-0.11
GGUCACGUCUCAAUCAACUCAUGUCCAGGAGUUUGCUCCUGCUAUUUCAACAGCUCGCAGUCAAG	0.0699
GGUCACGUCUCAAUCAACUCAGUUUCCAGGGAAAGCCCUGGUUUUUUCAACAGCUCGCAGUCAAG	-0.0636
GGUCACGUCUCAAUCAACUCAACUCCAGGAGUUUCCUCCUGUUAUGUCAACAGCUCGCAGUCAAG	-0.0604
GGUCACGUCUCAAUCAACUCAACGGAGGGGGGGAAAACCCCUUUACCCUCAUAUUCAACAGCUCGCAGUCAAG	-0.148
GGUCACGUCUCAAUCAACUCAUAGGAGGGGGGGAAAACCCCUUUACCCUCACAUUCAACAGCUCGCAGUCAAG	-0.072
GGUCACGUCUCAAUCAACUCUAAAGAGGGGGGGAAAACCCCUUUGCCCUCGUCAUCAACAGCUCGCAGUCAAG	-0.395
GGUCACGUCUCAAUCAACUCAUUUCCCAGGGAAAACCCUGGUUUAUUCAACAGCUCGCAGUCAAG	-0.0866
GGUCACGUCUCAAUCAACUCUUCCUCCAGGGAAAGCCCUGGCAUUUUCAACAGCUCGCAGUCAAG	-0.0398
GGUCACGUCUCAAUCAACUCCAUCGAGGGGGGGAAAACCCCUUUACCCUCAAACUCAACAGCUCGCAGUCAAG	-0.126
GGUCACGUCUCAAUCAACUCAACUUCAGGAGUUUUCUCCUGCAUAUUCAACAGCUCGCAGUCAAG	0.199
GGUCACGUCUCAAUCAACUCAUCUCCAGGAGUUUCCUCCUGCUAUUUCAACAGCUCGCAGUCAAG	0.0636
